The record followed here is the supplement of paper PMC7125110.

B1: glmS ribozyme (parent)
chain: AUAAAAGCGCCAGAACUACAGAAAUGUAGUUGACGAGGAGGAGGUUUAUCGAAUUUUCGGCGGAUGCCUCCAAA

± gives the standard error. Variants at the background level are over-represented here. A value given as a limit tells only on which side of the number the result lay.

Holding throughout (details): with glucosamine-6-phosphate
The variants in data set [1] derive from B1. Briefly: self-cleavage kobs at 40 uM GlcN6P; higher = faster cleavage; RNA array. The gist of the method: (§1)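 Tracking of barcoded ribozyme variants used a hybridised Cy3 probe at 37 °C, after in situ transcription by E. coli RNA polymerase on sequenced MiSeq chips. The flowed solution held 40 μM to 10 mM glucosamine-6-phosphate in HEPES/KCl/Mg(OAc)2 buffer, and imaging ran over ~14 h. kobs was taken from exponential decay fits of normalised per-tile medians, and kcat and KM from weighted Michaelis–Menten fits.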

Data set [2] covers variants of B1. Briefly: self-cleavage kobs at 640 uM GlcN6P; higher = faster cleavage; RNA array. The gist of the method: as §1
In data set [3] the parent is B1. Briefly: self-cleavage kobs at 160 uM GlcN6P; higher = faster cleavage; RNA array. An outline of the steps: as §1
In data set [4] the parent is B1. Briefly: self-cleavage kobs at 10000 uM GlcN6P; higher = faster cleavage; RNA array. The gist of the method: as §1
The variants in data set [5] derive from B1. Briefly: self-cleavage kobs at 2500 uM GlcN6P; higher = faster cleavage; RNA array. An outline of the steps:
as §1

On to A48G C50U C70U, for which, in the data set with glucosamine-6-phosphate [1], the “self-cleavage kobs at 40 uM GlcN6P” value is < 1e-05 s⁻¹.
Take U47A G62U: in the data set with glucosamine-6-phosphate [1], the “self-cleavage kobs at 40 uM GlcN6P” value is < 1e-05 s⁻¹. In addition, in the data set with glucosamine-6-phosphate [2], the “self-cleavage kobs at 640 uM GlcN6P” value was < 1e-05 s⁻¹. Also, the “self-cleavage kobs at 160 uM GlcN6P” value with glucosamine-6-phosphate [3] was < 1e-05 s⁻¹.
In the case of A48U G51A C68G, in the data set with glucosamine-6-phosphate [1], the “self-cleavage kobs at 40 uM GlcN6P” value was < 1e-05 s⁻¹. Further, the “self-cleavage kobs at 10000 uM GlcN6P” value with glucosamine-6-phosphate [4] was < 1e-05 s⁻¹.
For U46C C68A, the “self-cleavage kobs at 40 uM GlcN6P” value with glucosamine-6-phosphate [1] is < 1e-05 s⁻¹.
Regarding U45A A53C G60A, in the data set with glucosamine-6-phosphate [1], the “self-cleavage kobs at 40 uM GlcN6P” value is < 1e-05 s⁻¹.
For the variant G44C A64U C71U, in the data set with glucosamine-6-phosphate [1], the “self-cleavage kobs at 40 uM GlcN6P” value is < 1e-05 s⁻¹.
With G44U G51A, the “self-cleavage kobs at 40 uM GlcN6P” value with glucosamine-6-phosphate [1] is < 1e-05 s⁻¹. Further, the “self-cleavage kobs at 640 uM GlcN6P” value in the data set with glucosamine-6-phosphate [2] is < 1e-05 s⁻¹. Moreover, the “self-cleavage kobs at 160 uM GlcN6P” value with glucosamine-6-phosphate [3] was < 1e-05 s⁻¹. Also, the “self-cleavage kobs at 2500 uM GlcN6P” value in the data set with glucosamine-6-phosphate [5] was < 1e-05 s⁻¹.
In the case of G44U G51U, in the data set with glucosamine-6-phosphate [1], the “self-cleavage kobs at 40 uM GlcN6P” value was < 1e-05 s⁻¹. Also, the “self-cleavage kobs at 640 uM GlcN6P” value in the data set with glucosamine-6-phosphate [2] was < 1e-05 s⁻¹. In the data set with glucosamine-6-phosphate [3], the “self-cleavage kobs at 160 uM GlcN6P” value was < 1e-05 s⁻¹. In addition, in the data set with glucosamine-6-phosphate [5], the “self-cleavage kobs at 2500 uM GlcN6P” value is < 1e-05 s⁻¹. In the data set with glucosamine-6-phosphate [4], the “self-cleavage kobs at 10000 uM GlcN6P” value was < 1e-05 s⁻¹.
Take U45G A53G C61A: the “self-cleavage kobs at 40 uM GlcN6P” value with glucosamine-6-phosphate [1] is < 1e-05 s⁻¹. In addition, the “self-cleavage kobs at 10000 uM GlcN6P” value with glucosamine-6-phosphate [4] was < 1e-05 s⁻¹.
Turning to U45C C50A, in the data set with glucosamine-6-phosphate [1], the “self-cleavage kobs at 40 uM GlcN6P” value is < 1e-05 s⁻¹. For the same variant, in the data set with glucosamine-6-phosphate [4], the “self-cleavage kobs at 10000 uM GlcN6P” value was < 1e-05 s⁻¹.
As to U45C C50G, the “self-cleavage kobs at 40 uM GlcN6P” value in the data set with glucosamine-6-phosphate [1] was < 1e-05 s⁻¹.
As to G44U G60U, in the data set with glucosamine-6-phosphate [1], the “self-cleavage kobs at 40 uM GlcN6P” value was < 1e-05 s⁻¹. The “self-cleavage kobs at 640 uM GlcN6P” value with glucosamine-6-phosphate [2] is < 1e-05 s⁻¹. In addition, the “self-cleavage kobs at 160 uM GlcN6P” value in the data set with glucosamine-6-phosphate [3] is < 1e-05 s⁻¹. The “self-cleavage kobs at 2500 uM GlcN6P” value with glucosamine-6-phosphate [5] was < 1e-05 s⁻¹. Besides, the “self-cleavage kobs at 10000 uM GlcN6P” value in the data set with glucosamine-6-phosphate [4] is < 1e-05 s⁻¹.
On to A48U A52G U55A A64G, for which the “self-cleavage kobs at 40 uM GlcN6P” value in the data set with glucosamine-6-phosphate [1] was < 1e-05 s⁻¹.
With U45A A64G, the “self-cleavage kobs at 40 uM GlcN6P” value with glucosamine-6-phosphate [1] amounted to 0.000998 ± 0.00025 s⁻¹. In addition, the “self-cleavage kobs at 640 uM GlcN6P” value with glucosamine-6-phosphate [2] is 0.0143 ± 0.0033 s⁻¹. The “self-cleavage kobs at 160 uM GlcN6P” value in the data set with glucosamine-6-phosphate [3] stood at 0.00526 ± 0.0021 s⁻¹. For the same variant, the “self-cleavage kobs at 10000 uM GlcN6P” value with glucosamine-6-phosphate [4] is 0.015 ± 0.004 s⁻¹.
For U49C A64G, the “self-cleavage kobs at 40 uM GlcN6P” value with glucosamine-6-phosphate [1] was < 1e-05 s⁻¹. In addition, the “self-cleavage kobs at 640 uM GlcN6P” value in the data set with glucosamine-6-phosphate [2] was < 1e-05 s⁻¹. For the same variant, in the data set with glucosamine-6-phosphate [3], the “self-cleavage kobs at 160 uM GlcN6P” value is < 1e-05 s⁻¹. In addition, the “self-cleavage kobs at 2500 uM GlcN6P” value with glucosamine-6-phosphate [5] is < 1e-05 s⁻¹. Also, the “self-cleavage kobs at 10000 uM GlcN6P” value with glucosamine-6-phosphate [4] was < 1e-05 s⁻¹.
For the variant U49C A64U, the “self-cleavage kobs at 40 uM GlcN6P” value with glucosamine-6-phosphate [1] was < 1e-05 s⁻¹. Moreover, in the data set with glucosamine-6-phosphate [2], the “self-cleavage kobs at 640 uM GlcN6P” value is < 1e-05 s⁻¹. Besides, the “self-cleavage kobs at 160 uM GlcN6P” value with glucosamine-6-phosphate [3] is < 1e-05 s⁻¹. Besides, the “self-cleavage kobs at 10000 uM GlcN6P” value with glucosamine-6-phosphate [4] is < 1e-05 s⁻¹.
G44U U45C A64C: the “self-cleavage kobs at 40 uM GlcN6P” value with glucosamine-6-phosphate [1] is < 1e-05 s⁻¹. For the same variant, in the data set with glucosamine-6-phosphate [5], the “self-cleavage kobs at 2500 uM GlcN6P” value was < 1e-05 s⁻¹. In addition, the “self-cleavage kobs at 10000 uM GlcN6P” value with glucosamine-6-phosphate [4] was < 1e-05 s⁻¹.
For A48G G62A, in the data set with glucosamine-6-phosphate [1], the “self-cleavage kobs at 40 uM GlcN6P” value was < 1e-05 s⁻¹. Also, the “self-cleavage kobs at 640 uM GlcN6P” value with glucosamine-6-phosphate [2] was < 1e-05 s⁻¹. Further, the “self-cleavage kobs at 160 uM GlcN6P” value with glucosamine-6-phosphate [3] is < 1e-05 s⁻¹.
Take G44A C61A: the “self-cleavage kobs at 40 uM GlcN6P” value with glucosamine-6-phosphate [1] is < 1e-05 s⁻¹. In addition, the “self-cleavage kobs at 640 uM GlcN6P” value with glucosamine-6-phosphate [2] was < 1e-05 s⁻¹. Also, in the data set with glucosamine-6-phosphate [3], the “self-cleavage kobs at 160 uM GlcN6P” value was < 1e-05 s⁻¹. Also, in the data set with glucosamine-6-phosphate [5], the “self-cleavage kobs at 2500 uM GlcN6P” value was < 1e-05 s⁻¹. Besides, the “self-cleavage kobs at 10000 uM GlcN6P” value in the data set with glucosamine-6-phosphate [4] was < 1e-05 s⁻¹.
Take U49A A64C: the “self-cleavage kobs at 40 uM GlcN6P” value with glucosamine-6-phosphate [1] is < 1e-05 s⁻¹. The “self-cleavage kobs at 2500 uM GlcN6P” value in the data set with glucosamine-6-phosphate [5] was < 1e-05 s⁻¹. For the same variant, the “self-cleavage kobs at 10000 uM GlcN6P” value with glucosamine-6-phosphate [4] was < 1e-05 s⁻¹.
Take A48U A53U G60A G66U: the “self-cleavage kobs at 40 uM GlcN6P” value in the data set with glucosamine-6-phosphate [1] is < 1e-05 s⁻¹.
For G44A U69C, the “self-cleavage kobs at 40 uM GlcN6P” value with glucosamine-6-phosphate [1] was < 1e-05 s⁻¹. Further, in the data set with glucosamine-6-phosphate [2], the “self-cleavage kobs at 640 uM GlcN6P” value was < 1e-05 s⁻¹. In the data set with glucosamine-6-phosphate [4], the “self-cleavage kobs at 10000 uM GlcN6P” value was < 1e-05 s⁻¹.
As to U45A U49A, in the data set with glucosamine-6-phosphate [1], the “self-cleavage kobs at 40 uM GlcN6P” value is < 1e-05 s⁻¹. The “self-cleavage kobs at 160 uM GlcN6P” value in the data set with glucosamine-6-phosphate [3] is < 1e-05 s⁻¹. In addition, the “self-cleavage kobs at 2500 uM GlcN6P” value with glucosamine-6-phosphate [5] was < 1e-05 s⁻¹.
As for U49A G60U, in the data set with glucosamine-6-phosphate [1], the “self-cleavage kobs at 40 uM GlcN6P” value is < 1e-05 s⁻¹. Also, in the data set with glucosamine-6-phosphate [3], the “self-cleavage kobs at 160 uM GlcN6P” value is < 1e-05 s⁻¹. The “self-cleavage kobs at 10000 uM GlcN6P” value in the data set with glucosamine-6-phosphate [4] was < 1e-05 s⁻¹.
